Here are results for two molecules from patent US12441790B2, “Binding proteins to the human thrombin receptor, PAR4” (MONASH UNIVERSITY, priority 2017, dated 2025).

Entries after “also recorded” stand apart in the source; their conditions may differ.

Test [1] concerns the target T1, PAR4 (Homo sapiens, UniProt Q96RI0).
T1 construct: host or cells: synthetic peptide
The test can be described thus: ELISA binding ratio to PAR4. The protocol: 96-well ELISA plates were coated with 50 μl of antigen diluted to a concentration of 4 μg/ml in coating buffer (0.1M Sodium Hydrogen Carbonate (NaHCO3) (Merck, #1.06329.0500)). Plates were incubated overnight at 4° C.
Wells were then washed with an automated plate washer (300 μl 1×PBS, 3 times). The wells were blocked with 200 μl of blocking buffer (3% BSA/1×PBS (BSA: (Sigma, #1001647742)) for 1 hour at room temperature followed by washing as above.
50 μl of undiluted hybridoma cell culture supernatant was added into appropriate wells and incubated at room temperature for 1 hour followed by washing as above. […] Wells were washed as above. A set of substrate tablets (1×silver, 1×gold) into 20 ml of ddH20 by shaking vigorously on the thermomixer for 6 mins at room temperature. 50 μl of substrate ([…]™ p-Nitrophenyl phosphate Tablets (Sigma-Aldrich, N2770-50SET)) was added into each well and incubated for 20-25 mins at room temperature. […] Absorbance was read at 405 nm immediately after adding STOP solution with the ELISA reader, using the ‘RdrOle4’ software.
Hybridoma supernatants were initially screened for binding to the immunising PAR4 peptide sequence ([…]-KLH (SEQ ID NO: 4)) by antigen microarray, with binding determined by fluorescence intensity signal over background (signal from medium alone). […]
(In an ELISA, binding on a coated surface is turned into a signal by an enzyme label.)

In test [2] the target is T2, PAR4 (Homo sapiens, UniProt Q96RI0).
T2 construct: host or cells: HEK293 cells transfected with FLAG-PAR4 and/or isolated human platelets
T2 sequence (Q96RI0 18-385): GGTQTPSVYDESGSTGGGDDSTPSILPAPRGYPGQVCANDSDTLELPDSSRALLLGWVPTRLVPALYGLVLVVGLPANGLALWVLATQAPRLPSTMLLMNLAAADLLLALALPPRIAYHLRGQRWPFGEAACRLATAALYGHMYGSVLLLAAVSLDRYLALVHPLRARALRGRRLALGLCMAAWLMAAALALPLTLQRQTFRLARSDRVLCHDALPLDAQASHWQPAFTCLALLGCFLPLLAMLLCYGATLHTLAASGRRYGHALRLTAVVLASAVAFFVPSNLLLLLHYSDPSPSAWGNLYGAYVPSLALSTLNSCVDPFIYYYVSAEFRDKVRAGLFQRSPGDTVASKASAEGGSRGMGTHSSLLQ
The experiment in a line: Functional bioassays for PAR4 inhibitory function. The format is cell-based.

Test [3] has as its system human platelets. The test can be described thus: Functional screen of hybridoma supernatants by platelet aggregation assay. The class given is cell-based. The note with it: aggregation as % of control. The protocol:
Platelet aggregation was measured by light transmission aggregometry in a 96-well plate format. Human isolated platelets (2×10^8/ml) were pre-treated for 10 mins at 37° C. with dimethylsulfoxide (DMSO) (1% v/v), the PAR1 antagonist vorapaxar (90 nM), the anti-PAR4 antibody 5RC3 (20-100 μg/ml), or a combination of vorapaxar and 5RC3. Platelets were treated with one of thrombin (0.1 U/ml) and aggregation was analysed at 37° C. in a FLUOstar OPTIMA plate reader (BMG Labtech) using a 595 nm excitation filter, for a period of 50 min (10 read cycles with 5 min double orbital shake period between each read). Optical density was normalised against the blank (maximum) and unstimulated platelets (minimum) and expressed as % maximum.
Thrombin-induced platelet aggregation in the presence of a PAR1 antagonist (i.e. PAR4-dependent aggregation) is shown for 30 monoclonal antibody supernatants binding to human platelets. Antibody supernatant was mixed with human platelets (2×10^8 cells) at a 1:1 ratio.

B1: 5H.RD2: PAR4-binding, non-inhibitory monoclonal antibody, IgG1/K, SEQ ID NOs 32 and 33 (antibody, V domains shown)
VH: EVQLVESGGDLVKPGGSLRLSCSASGFTFFNTWMNWVRQAPGKGLEWVGRVKSKNDGGTKDYAAPVTGRFTISRDDSKDTLYLQMNSLKTEDTAVYYCTTDPHYDFWSAYWGQGTLVTVSS
VL: [letters of about 100 residues not shown]QFMYTFGQGTKLEIK
modifications: VH of 5H.RD2; VL of 5H.RD2
Regarding B1, the “binding to PAR4” value in test [1] is recorded as “bound to PAR4”. Moreover, in test [2], the “PAR4 inhibitory (antagonist) function” value was “did not demonstrate inhibitory function against PAR4; also recorded: did not function as an antagonist”.

B2: MoB5H D2: hybridoma supernatant clone, second screening; likely parent of 5H.RD2 (antibody, V domains shown)
VH: B1 VH
VL: [letters of about 100 residues not shown]QFMYTFGQGTKLEIK
B2: in test [3], the “Functional screen on hybridoma supernatants” value was “no”.
